According to article PMC7729032, “Interaction interface in the C-terminal parts of centriole proteins Sas6 and Ana2” (Open Biology, 2020):
No constants are given. Whether binding was seen depends on the method and setting. Binding seen in cells or lysates may run through a third protein. Tags and fused reporters may be left off the sequences shown.

Target: T1, GST-tagged Ana2 wild-type (Drosophila), Q9XZ31
T1 chain: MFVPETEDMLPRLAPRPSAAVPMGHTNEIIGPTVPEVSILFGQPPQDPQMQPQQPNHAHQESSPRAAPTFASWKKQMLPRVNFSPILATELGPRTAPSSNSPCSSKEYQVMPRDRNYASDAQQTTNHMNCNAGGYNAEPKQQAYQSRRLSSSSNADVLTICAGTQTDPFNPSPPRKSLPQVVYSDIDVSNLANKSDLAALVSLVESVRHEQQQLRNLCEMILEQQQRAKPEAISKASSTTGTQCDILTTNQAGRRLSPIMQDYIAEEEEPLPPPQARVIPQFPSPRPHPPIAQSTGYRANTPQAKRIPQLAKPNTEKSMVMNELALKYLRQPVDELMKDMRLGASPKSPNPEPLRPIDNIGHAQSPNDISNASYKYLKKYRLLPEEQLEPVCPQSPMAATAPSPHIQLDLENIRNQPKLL
Assay: pull-down; bait from lysate on Glutathione-Sepharose 4B, washed; lysate with MBP-tagged prey added, 1 h at 4°C; washes in 20 mM Tris–HCl pH 7.5, 250 mM NaCl, 5% glycerol, 1 mM DTT, 0.5% Triton; SDS–PAGE with PageBlue staining; only the target purified
Settings: remark: other sources report otherwise

binding: no binding
B1: MBP-Sas6 wild-type, Q9VAC8 1-472 (protein)
chain: MWPPGSEDSYSAKMDYGKSVVNILPSVEMLVNFNGEMTRSSKRSCLLYAERVDFKELLQLRLTEKSDQRRMYITTVDSASFQDLKQDQSLNVSFSGFIDNVVRMLKDCQSGKLELHLTTRDQNLSSGREVHDYYLQFVEIRSFKNLVHLSLPCRSAPLNTVLFYINSMLEASHKKQYILEQSMQQMQAEINAQRAHAERLTTENTNIREALAENTRILEEKHAAEVHQYQEKLSKINEQRSNELERNRRAISGFQAQLDKASLEKAELKSAQEQAEKRCQTLSEELSCCKARVCTLKEQNDKLHGDVANIRKHERKLEYKIEDLKQHTVELQEHIQKGNKEKANIAAELEAEKKILHTKRQALEMASEEISKANQIIVKQSQELLNLKKTIAWRTEVALQQEKAVQAKESLLSLRENELREARITIEKLREEIPQQLQSMRNFAQGLEQKYSKQILILKERLAIPTGKENRR
